Experimental data as given in the supplement of paper PMC4967469.
By IC50 is meant the dose at which the fit gives 50% viability; fits outside the tested doses are given as limits. AUC, from the same fit, is the share of area under the viability curve across the 256-fold dose range; it is 1 without any effect and falls as sensitivity rises. A top dose marked as inferred is not printed in the source and was worked back from the curve model.

Compound: O=C1NC(=O)/C(=C\c2ccc3nccnc3c2)S1 [AS605240]
Experiment: Viability of human cancer cell lines after 72 h of drug (GDSC screen)
Conditions: top dose inferred
Description: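 Human cancer cell lines in 384-well plates, medium with 10% serum, drug for 72 h over a 256-fold dose range (nine 2-fold or five 4-fold steps up to the top dose). Adherent lines were fixed and stained with the nucleic acid dye Syto60, suspension lines read with resazurin; signal relative to control wells, capped at 0 and 100%. One two-parameter sigmoid per drug and line, fitted in a mixed model over all curves with the slope shared within a line.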

In order of falling AUC:
1. SW13 (adrenal gland, adherent, top dose 20 µM)  0.988
2. SiHa (cervix, adherent, top dose 20 µM)  0.987
3. SW756 (cervix, adherent, top dose 20 µM)  0.985
4. SW1116 (large intestine, adherent, top dose 20 µM)  0.982
5. SW684 (fibrosarcoma, adherent, top dose 20 µM)  0.98
6. Saos-2 (osteosarcoma, adherent, top dose 20 µM)  0.979
7. T98G (glioma, adherent, top dose 20 µM)  0.978
8. SW780 (bladder, adherent, top dose 20 µM)  0.971
9. SW872 (soft tissue, adherent, top dose 20 µM)  0.968
10. SW962 (urogenital system, adherent, top dose 20 µM)  0.968
11. SW1990 (pancreas, adherent, top dose 20 µM)  0.959
12. T-T (oesophagus, adherent, top dose 20 µM)  0.959
13. SW156 (kidney, adherent, top dose 20 µM)  0.954
14. SW1783 (glioma, adherent, top dose 20 µM)  0.954
15. SW1088 (glioma, adherent, top dose 20 µM)  0.947
16. SW48 (large intestine, adherent, top dose 20 µM)  0.937
17. SW948 (large intestine, adherent, top dose 20 µM)  0.921
18. SU-DHL-16 (B-cell lymphoma, suspension, top dose 20 µM)  0.915
19. SW982 (soft tissue, adherent, top dose 20 µM)  0.897
20. SW620 (large intestine, adherent, top dose 20 µM)  0.882
21. SW1710 (bladder, adherent, top dose 20 µM)  0.874
22. T84 (large intestine, adherent, top dose 20 µM)  0.869
23. T-24 (bladder, adherent, top dose 20 µM)  0.858
24. SU-DHL-5 (B-cell lymphoma, suspension, top dose 20 µM)  0.852
25. SUP-HD1 (Hodgkin lymphoma, suspension, top dose 20 µM)  0.845
26. SU-DHL-6 (B-cell lymphoma, suspension, top dose 20 µM)  0.823
27. SW1573 (lung adenocarcinoma, adherent, top dose 20 µM)  0.805
28. SW900 (lung squamous cell carcinoma, adherent, top dose 20 µM)  0.768
29. SW1417 (large intestine, adherent, top dose 20 µM)  0.764
30. SU-DHL-10 (B-cell lymphoma, suspension, top dose 20 µM)  0.738
31. T47D (breast, adherent, top dose 20 µM)  0.729
32. SUP-M2 (anaplastic large cell lymphoma, suspension, top dose 20 µM)  0.724
33. SW1271 (small cell lung carcinoma, adherent, top dose 20 µM)  0.715
34. SW954 (urogenital system, adherent, top dose 20 µM)  0.629
35. SUP-T1 (T-cell lymphoblastic leukaemia, suspension, top dose 20 µM)  0.618
36. SW626 (ovary, adherent, top dose 20 µM)  0.552
37. SUIT-2 (pancreas, adherent, top dose 20 µM)  0.521
38. SU-DHL-8 (B-cell lymphoma, suspension, top dose 20 µM)  0.49
39. SW837 (large intestine, adherent, top dose 20 µM)  0.488
40. SUP-B15 (lymphoblastic leukaemia, suspension, top dose 20 µM)  0.428
41. SW1463 (large intestine, adherent, top dose 20 µM)  0.423

“SU-DHL-5 (B-cell lymphoma, suspension, top dose 20 µM)” and “SU-DHL-6 (B-cell lymphoma, suspension, top dose 20 µM)” are within 1.5-fold of each other in IC50: 9.91 µM for the first, 8.02 µM for the second.

Compared with “SU-DHL-8 (B-cell lymphoma, suspension, top dose 20 µM)”, “SU-DHL-10 (B-cell lymphoma, suspension, top dose 20 µM)” is 4-fold higher in IC50: 1.18 µM for the first, 4.69 µM for the second.

Compared with “SU-DHL-16 (B-cell lymphoma, suspension, top dose 20 µM)”, “SUIT-2 (pancreas, adherent, top dose 20 µM)” is 10-fold lower in IC50: 14.7 µM for the first, 1.43 µM for the second.

Compared with “SUP-B15 (lymphoblastic leukaemia, suspension, top dose 20 µM)”, “SUP-HD1 (Hodgkin lymphoma, suspension, top dose 20 µM)” is 17-fold higher in IC50: 0.8 µM for the first, 13.5 µM for the second.

Compared with “SUP-M2 (anaplastic large cell lymphoma, suspension, top dose 20 µM)”, “SUP-T1 (T-cell lymphoblastic leukaemia, suspension, top dose 20 µM)” is 1.8-fold lower in IC50: 4.48 µM for the first, 2.55 µM for the second.

“SW13 (adrenal gland, adherent, top dose 20 µM)” and “SW48 (large intestine, adherent, top dose 20 µM)” cannot be ordered by IC50: greater than 20 µM for the first, greater than 20 µM for the second.

Compared with “SW156 (kidney, adherent, top dose 20 µM)”, “SW620 (large intestine, adherent, top dose 20 µM)” is lower in IC50: greater than 20 µM for the first, 16.8 µM for the second.

Going from SW626 (ovary, adherent, top dose 20 µM) to “SW684 (fibrosarcoma, adherent, top dose 20 µM)”, the IC50 rises from 1.78 µM to greater than 20 µM.

“SW756 (cervix, adherent, top dose 20 µM)” and “SW780 (bladder, adherent, top dose 20 µM)” cannot be ordered by IC50: greater than 20 µM for the first, greater than 20 µM for the second.

First: SW837 (large intestine, adherent, top dose 20 µM)
Second: SW872 (soft tissue, adherent, top dose 20 µM)
The IC50 of the first is lower: 1.15 µM for the first, greater than 20 µM for the second.

Going from “SW900 (lung squamous cell carcinoma, adherent, top dose 20 µM)” to “SW948 (large intestine, adherent, top dose 20 µM)”, the IC50 rises from 8.7 µM to greater than 20 µM.

Compared with “SW954 (urogenital system, adherent, top dose 20 µM)”, “SW962 (urogenital system, adherent, top dose 20 µM)” is higher in IC50: 2.86 µM for the first, greater than 20 µM for the second.

“SW982 (soft tissue, adherent, top dose 20 µM)” and “SW1088 (glioma, adherent, top dose 20 µM)” cannot be ordered by IC50: greater than 20 µM for the first, greater than 20 µM for the second.

First: SW1116 (large intestine, adherent, top dose 20 µM)
Second: SW1271 (small cell lung carcinoma, adherent, top dose 20 µM)
The IC50 of the first is higher: greater than 20 µM for the first, 5.62 µM for the second.

First: SW1417 (large intestine, adherent, top dose 20 µM)
Second: SW1463 (large intestine, adherent, top dose 20 µM)
The IC50 of the first is 13-fold higher: 8.44 µM for the first, 0.662 µM for the second.

Going from “SW1573 (lung adenocarcinoma, adherent, top dose 20 µM)” to “SW1710 (bladder, adherent, top dose 20 µM)”, the IC50 rises from 14.6 µM to greater than 20 µM.

“SW1783 (glioma, adherent, top dose 20 µM)” and “SW1990 (pancreas, adherent, top dose 20 µM)” cannot be ordered by IC50: greater than 20 µM for the first, greater than 20 µM for the second.

“Saos-2 (osteosarcoma, adherent, top dose 20 µM)” and SiHa (cervix, adherent, top dose 20 µM) cannot be ordered by IC50: greater than 20 µM for the first, greater than 20 µM for the second.

First: T47D (breast, adherent, top dose 20 µM)
Second: T84 (large intestine, adherent, top dose 20 µM)
The IC50 of the first is 2.3-fold lower: 8.09 µM for the first, 19 µM for the second.

Going from T98G (glioma, adherent, top dose 20 µM) to “T-24 (bladder, adherent, top dose 20 µM)”, the IC50 falls from greater than 20 µM to 15.3 µM.

“T-T (oesophagus, adherent, top dose 20 µM)” was tested, and the IC50 was greater than 20 µM.
